Measured values: PubChem BioAssay AID686978 (National Center for Advancing Translational Sciences (NCATS), 2013)
About 64,000 (15%) of roughly 420,000 compounds were called active. Inconclusive means that the source gave no clear call. Such entries were picked first, then a sample of the others. The call rests on the fitted dose curve; in most records, active means well fitted inhibition curve with a large enough effect; inconclusive means small, poorly fitted or top-dose-only effect; inactive means flat fitted curve, though single readings scatter. Potencies of inconclusive entries are left out as doubtful fits.

experiment: qHTS for Inhibitors of human tyrosyl-DNA phosphodiesterase 1 (TDP1): qHTS in cells in absence of CPT; conditions: DT40 Tdp1-/- hTDP1 cells, no CPT, ATP luminescence, 48 h; series mostly up to 46.2 µM; further: nearly all actives have a fitted effect of over 55% in size
Outline: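 Compound effects on proliferation are scored in DT40 Tdp1-/-;hTDP1 cells in the absence of CPT. ATP levels (CellTiter-Glo luminescence) are recorded after a ≥48 hr, 37 °C incubation.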
Potency means the concentration at half of the fitted maximal effect; tags describe the fitted curve by direction and shape.

Structure (SMILES)	Potency
CCOc1ccc2nc(N3CCCC(C(=O)NCCCOC)C3)sc2c1 (stereo not drawn)	active: 18.4 µM
Cc1nc2nc(NCc3cccc(Cl)c3)[nH]n2c(=O)c1Cc1ccccc1	inconclusive [inhibitor, single point]
CCN1CCN(C(=O)c2cc(COc3ccc(C(C)=O)cc3OC)on2)CC1	inactive
COc1ccc(NC(=O)[C@@H]2O[C@H](CO)[C@H](O)[C@H](O)[C@H]2O)cc1F	inactive
CCCCc1cc(=O)oc2cc(C)cc(OCC(=O)NCc3ccncc3)c12	inactive
C/C(=N\NC(=O)c1ccccc1OCCOc1ccccc1)c1ccccc1F	active: 16.4 µM
O=C(CSc1nc2nc(-c3cccs3)cc(C(F)(F)F)c2c(=O)[nH]1)Nc1ccc(F)c(F)c1	active: 4.11 µM
Cc1ccc(SCC(=O)NCc2ccccc2)cc1	inactive
O=C1C(Cl)=C(NCCc2ccccc2)C(=O)c2ccccc21	active: 1.46 µM
CC1=C(C(=O)OCCBr)C(c2cccc3ccccc23)NC(=O)N1 (stereo not drawn)	inconclusive [inhibitor, single point]
Fc1cccc(Cl)c1-c1nnc2ccc(C(F)(F)F)cn12	inactive
CCOC(=O)N1[C@@H]2C=C(C)[C@@H]2[C@@H]2[C@@H](C)C(=O)N21	inactive
CCOc1ccc(CCNC(=O)Cn2c(=O)c3cccn3c3ccc(F)cc32)cc1OCC	inconclusive [inhibitor, partial curve]
CC1CCCN(C(=O)c2cccc(S(=O)(=O)NCc3ccccc3)c2)C1 (stereo not drawn)	inconclusive [inhibitor, single point]
COC(=O)c1ccc(Cn2c(SCc3ccccc3F)nc3ccncc32)cc1	inconclusive [inhibitor, single point]
O=C(Nc1ccc(-c2ccc3nncn3n2)cc1)c1ccc(Br)o1	inconclusive [inhibitor, full curve, poor fit]
Clc1ccc(SCc2nc3ccccc3[nH]2)cc1	inconclusive [inhibitor, single point]
CC1(C)OC1COc1c2ccoc2cc2oc(=O)ccc12 (stereo not drawn)	inactive
COC(=O)c1ccc(NC(=O)c2ccccc2N(C)S(=O)(=O)c2ccccc2)cc1	active: 20.6 µM
C=CCn1c(SCC(=O)c2cccs2)nc2sc(C)cc2c1=O	active: 20.6 µM
Cc1ccc(Cl)cc1-n1ncc2c(NCc3ccc(F)cc3)ncnc21	inconclusive [inhibitor, single point]
CC(=O)NC(CC(=O)Nc1nccs1)c1ccccc1 (stereo not drawn)	inactive
Cn1ncc(Br)c1C(=O)Nc1c(F)c(F)cc(F)c1F	inconclusive [inhibitor, partial curve]
Cc1cc(N/N=C/c2ccccc2O)c2ccccc2n1	active: 16.4 µM
COc1ccc(OCCn2c(C(C)Oc3ccccc3)nc3ccccc32)cc1 (stereo not drawn)	inconclusive [inhibitor, single point]

Structure (SMILES)	Potency
CCCCOC(=O)n1c(=S)oc2cc(Cl)ccc21	active: 23.1 µM
CC(=O)NS(=O)(=O)c1ccc(NC(=O)/C=C/c2ccc(C)o2)cc1	inactive
CCCCOc1ccc(N(CC(=O)NC(C)C)C(=O)CCC(=O)Nc2ccccn2)cc1	inactive
COc1cc(NC(=S)NCCc2c[nH]c3ccccc23)c(OC)cc1Cl	inconclusive [inhibitor, single point]
Cc1ccnc(NS(=O)(=O)c2ccc(NS(=O)(=O)c3ccc([N+](=O)[O-])cc3)cc2)n1	inactive
O=C(NC1CCCC1)C(c1ccccc1)N(Cc1ccc2c(c1)OCO2)C(=O)Cc1cccs1 (stereo not drawn)	inconclusive [inhibitor, single point]
COc1cc(OC)c(S(=O)(=O)Nc2ccccc2C(=O)O)cc1S(=O)(=O)Nc1ccccc1C(=O)O	inactive
O=C(Oc1ccc(Cl)c2cccnc12)c1ccco1	inconclusive [inhibitor, single point]
Cc1ccnn1CCC(=O)N1CCCC(Nc2ccc(C(C)C)cc2)C1 (stereo not drawn)	active: 16.4 µM
O=C(COC(=O)C1(c2ccc(F)cc2)CCCC1)NCc1ccco1	inactive
COc1ccc(Cc2nnc(NC(=O)C(C)(C)C)s2)cc1	inactive
CC(c1ccccc1)N1C(=O)c2ccc(C(=O)NCc3cccnc3)cc2C1=O (stereo not drawn)	inactive
O=C(CN(Cc1ccco1)C(=O)CNS(=O)(=O)c1ccc(Cl)cc1)NCC1CCCO1 (stereo not drawn)	inactive
CCOc1ccc(C(=O)N2CCN(c3ccccc3)CC2)cc1OCC	inconclusive [inhibitor, partial curve]
CCN(CC)S(=O)(=O)c1ccc2c(c1)nc(CN(C)C(=O)Nc1cccc(Cl)c1)n2C	inconclusive [inhibitor, partial curve, poor fit]
CCOc1ccc(CCN2C(=O)C(=O)N([C@@H](Cc3ccccc3)CN3CCC[C@H]3CN3C(=O)C(=O)NC[C@@H]3Cc3ccccc3)C[C@@H]2Cc2ccccc2)cc1	active: 23.1 µM
COc1cccc(C(=O)c2cn(CC(=O)Nc3cccc(C(F)(F)F)c3)c3nc(C)ccc3c2=O)c1	inconclusive [inhibitor, single point]
CCc1cccc(C)c1NC(=S)NCc1cccn1C	inconclusive [inhibitor, single point]
CC(=O)Nc1ccc(NC(=O)c2ccccc2Sc2ccc([N+](=O)[O-])cc2Cl)cc1	inconclusive [inhibitor, single point]
CC(=O)N1CCc2cc(S(=O)(=O)NC(CC(C)C)C(=O)NCCc3ccc(C)cc3)ccc21 (stereo not drawn)	inactive
Cn1cc(C(=O)N/N=C/c2c(O)ccc3ccccc23)ccc1=O	active: 3.66 µM
O=C1ON=C(c2ccccc2)/C1=C/c1ccccc1	inactive
CCCN(CCC)C(=O)CN1C(=O)CSc2ccc(S(=O)(=O)N3CCC(C)CC3)cc21	inconclusive [inhibitor, single point]
COc1ccc(Cn2c(CCC(=O)Nc3ccc(C)c(C)c3)nc3cccnc32)cc1	active: 20.6 µM
CCOc1ccc(C(=O)CCN2CCCCC2)cc1	inconclusive [inhibitor, single point]

Structure (SMILES)	Potency
COc1ccccc1-c1c(C)oc2cc(OC(=O)c3ccco3)ccc2c1=O	inconclusive [inhibitor, single point]
COc1ccc(-n2nc(C(=O)NCC(=O)N3CCN(Cc4ccccc4)CC3)c3ccccc3c2=O)c(OC)c1	inconclusive [inhibitor, single point]
N#C/C(=C\c1ccncc1)c1nc2ccccc2c(=O)[nH]1	inactive
CCN1CCc2c(sc(N)c2C(N)=O)C1	active: 23.1 µM
CCn1cc(C(=O)O)c(=O)c2cc(F)c(N3CCN(C(=S)NC(=O)c4ccccc4Br)CC3)cc21	active: 20.6 µM
CCN(c1ccccc1)S(=O)(=O)c1ccc(C(=O)N2CC(C)CC(C)C2)cc1 (stereo not drawn)	inconclusive [inhibitor, partial curve]
Cc1cccc(C)c1N=C1SC(CC(=O)Nc2c(C)cccc2C)C(=O)N1CCc1ccccn1 (stereo not drawn)	active: 16.4 µM
COc1ccc(S(=O)(=O)N2CCC[C@H]2C(=O)N2CCC[C@H]2C(=O)N[C@@H](C)c2ccccc2)cc1C	inconclusive [inhibitor, single point]
Cc1[nH]c2ccccc2c1C(=O)COC(=O)C1CC(O)CN1S(=O)(=O)c1ccc(Cl)cc1 (stereo not drawn)	inconclusive [inhibitor, single point]
COc1ccc(OC)c(C2NC(=O)c3sc(=S)n(-c4ccccc4)c3N2)c1 (stereo not drawn)	inactive
Nc1nnnn1/N=C/c1ccccc1	inconclusive [inhibitor, full curve]
CCOc1ccc(OCc2cccc(C(=O)N/N=C/c3cccnc3)c2)cc1	inconclusive [inhibitor, single point]
CCC(C)c1ccc(OCCn2cc(/C=N/NC(=O)CSc3nnc(C)s3)c3ccccc32)cc1 (stereo not drawn)	inconclusive [inhibitor, single point]
CC(=O)C1CCC2C3CC(C)=C4CC(O)CCC4(C)C3CCC12C (stereo not drawn)	active: 20.6 µM
COc1ccc(C(=O)Nc2ccc(S(=O)(=O)Nc3nccc(C)n3)cc2)cc1[N+](=O)[O-]	inactive
CCCCCC(O)(CCCCC)C(=O)NNc1ccccc1	inconclusive [inhibitor, single point]
CCOC(=O)c1cc(-c2ccccc2)n(CC(=O)Nc2ccc(OCC)cc2)c1C	inconclusive [inhibitor, single point]
COc1ccc(-c2nn(-c3ccccc3)cc2/C=C/C(=O)N(C)CC(=O)Nc2cccc(F)c2)cc1OC	inconclusive [inhibitor, single point]
Cc1cc(C)cc(NS(=O)(=O)c2ccc(-n3cccn3)cc2)c1	inconclusive [inhibitor, single point]
Cn1cc(CCC(=O)NCc2ccc(Cl)cc2)c2ccccc21	inconclusive [inhibitor, single point]
COCCCNC(=O)c1oc2c(c1C)-c1nn(Cc3ccc(Cl)cc3)cc1CC2	active: 18.4 µM
CC(C)(Oc1ccc(Cl)cc1)C(=O)NC1CCCCC1	inconclusive [inhibitor, partial curve, poor fit]
COc1ccc(-c2cccc(NS(=O)(=O)c3ccc(C)s3)c2)nn1	active: 16.4 µM
